# Measurements as given in PMC5892938.
# The list shows a part of the results. At the low end of the ranking the order means little.
# Biological target: GST-SBP-SLBP (stem-loop binding protein) (UniProt Q14493)
# Test: targeted RNA Bind-n-Seq;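 further: DESeq read counts versus GST-SBP nonspecific binding control pulldown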
# Conditions: RBNS binding buffer: 25 mM Tris pH 7.5, 150 mM KCl, 3 mM MgCl2, 0.1% Tween, 0.5 mg/mL BSA, 1 mM DTT; 27 nM protein, 750 pM RNA pool; temperature not stated; high values mean tight binding
row,Sequence,binding signal (log2 fold change)
1,GGUCACGUCUCAAUCAACUCAUCGCCAGGAGUUUACUCCUGUUUUUUCAACAGCUCGCAGUCAAG,-0.119
2,GGUCACGUCUCAAUCAACUCUUUAGAGGGGGGGAAAACCCCUUUACCCUCGUCCUCAACAGCUCGCAGUCAAG,0.135
3,GGUCACGUCUCAAUCAACUCAUGUCCAGGAGUUUCCUCCUGCAAUCUCAACAGCUCGCAGUCAAG,0.0967
4,GGUCACGUCUCAAUCAACUCAAUCCCAGGAGUUUGCUCCUGUAUACUCAACAGCUCGCAGUCAAG,-0.0166
5,GGUCACGUCUCAAUCAACUCUAUUUCCAGGGAAAUCCCUGGUUUAUUCAACAGCUCGCAGUCAAG,-0.302
6,GGUCACGUCUCAAUCAACUCAAUCCCCAGGGAAAACCCUGGCAAUUUCAACAGCUCGCAGUCAAG,-0.032
7,GGUCACGUCUCAAUCAACUCAAUUUCCAGGGAAAGCCCUGGCAUUUUCAACAGCUCGCAGUCAAG,0.185
8,GGUCACGUCUCAAUCAACUCAUUCUCCAGGGAAAACCCUGGCUAUUUCAACAGCUCGCAGUCAAG,0.146
9,GGUCACGUCUCAAUCAACUCUACUCCCAGGGAAAGCCCUGGUAUUUUCAACAGCUCGCAGUCAAG,-0.0722
10,GGUCACGUCUCAAUCAACUCAUCGCCAGGAGUUUUCUCCUGCUUAUUCAACAGCUCGCAGUCAAG,-0.177
11,GGUCACGUCUCAAUCAACUCUAUCCCCAGGGAAAGCCCUGGCUAUUUCAACAGCUCGCAGUCAAG,-0.0591
12,GGUCACGUCUCAAUCAACUCAUCUUCAGGAGUUUGCUCCUGUUUACUCAACAGCUCGCAGUCAAG,0.0113
13,GGUCACGUCUCAAUCAACUCAAUCUCAGGAGUUUACUCCUGUAUACUCAACAGCUCGCAGUCAAG,-0.0109
14,GGUCACGUCUCAAUCAACUCCUAAGAGGGGGGGAAAACCCCUUUACCCUCAUCCUCAACAGCUCGCAGUCAAG,-0.0157
15,GGUCACGUCUCAAUCAACUCUUCCCCAGGAGUUUUCUCCUGUUAUCUCAACAGCUCGCAGUCAAG,0.0606
16,GGUCACGUCUCAAUCAACUCUUCGCCCAGGGAAAACCCUGGUUAUUUCAACAGCUCGCAGUCAAG,0.0308
17,GGUCACGUCUCAAUCAACUCUACUCCCAGGGAAAACCCUGGUAAUUUCAACAGCUCGCAGUCAAG,0.454
18,GGUCACGUCUCAAUCAACUCAACUUCCAGGGAAACCCCUGGUUUUUUCAACAGCUCGCAGUCAAG,0.178
19,GGUCACGUCUCAAUCAACUCUAUCUCCAGGGAAAUCCCUGGCAUUCUCAACAGCUCGCAGUCAAG,-0.167
20,GGUCACGUCUCAAUCAACUCUAGUCCAGGAGUUUCCUCCUGUAUAUUCAACAGCUCGCAGUCAAG,-0.000137
21,GGUCACGUCUCAAUCAACUCUUCGCCCAGGGAAAGCCCUGGUAAUUUCAACAGCUCGCAGUCAAG,-0.192
22,GGUCACGUCUCAAUCAACUCUUCCCCCAGGGAAAACCCUGGCUAAUUCAACAGCUCGCAGUCAAG,-0.0619
23,GGUCACGUCUCAAUCAACUCCUACGAGGGGGGGAAAACCCCUUUACCCUCACAAUCAACAGCUCGCAGUCAAG,-0.474
24,GGUCACGUCUCAAUCAACUCAACGCCAGGAGUUUUCUCCUGUAUUCUCAACAGCUCGCAGUCAAG,-0.0179

row,Sequence,binding signal (log2 fold change)
1,GGUCACGUCUCAAUCAACUCAUUCCCAGGAGUUUUCUCCUGCUUAGUCAACAGCUCGCAGUCAAG,0.0921
2,GGUCACGUCUCAAUCAACUCAACGCCAGGAGUUUUCUCCUGUUUAUUCAACAGCUCGCAGUCAAG,-0.215
3,GGUCACGUCUCAAUCAACUCUCUCGAGGGGGGGAAAACCCCUUUACCCUCAAACUCAACAGCUCGCAGUCAAG,-0.00388
4,GGUCACGUCUCAAUCAACUCAGUUUCCAGGGAAAGCCCUGGUUUAUUCAACAGCUCGCAGUCAAG,0.00488
5,GGUCACGUCUCAAUCAACUCUCCCGAGGGGGGGAAAACCCCUUUGCCCUCACAUUCAACAGCUCGCAGUCAAG,0.0108
6,GGUCACGUCUCAAUCAACUCAUCUUCAGGAGUUUACUCCUGUUUAGUCAACAGCUCGCAGUCAAG,-0.0298
7,GGUCACGUCUCAAUCAACUCUUCUCCAGGAGUUUUCUCCUGCUAAUUCAACAGCUCGCAGUCAAG,-0.237
8,GGUCACGUCUCAAUCAACUCAAGUCCCAGGGAAACCCCUGGCAAAUUCAACAGCUCGCAGUCAAG,-0.0828
9,GGUCACGUCUCAAUCAACUCUCUAGAGGGGGGGAAAACCCCUUUACCCUCGAUAUCAACAGCUCGCAGUCAAG,-0.305
10,GGUCACGUCUCAAUCAACUCGUUUUCAGGAGUUUCCUCCUGCUUAUUCAACAGCUCGCAGUCAAG,-0.0376
11,GGUCACGUCUCAAUCAACUCAUCGCCAGGAGUUUCCUCCUGCUUUCUCAACAGCUCGCAGUCAAG,-0.196
12,GGUCACGUCUCAAUCAACUCAUAAGAGGGGGGGAAAACCCCUUUGCCCUCAAACUCAACAGCUCGCAGUCAAG,0.197
13,GGUCACGUCUCAAUCAACUCUAGUCCCAGGGAAACCCCUGGUAAUUUCAACAGCUCGCAGUCAAG,-0.162
14,GGUCACGUCUCAAUCAACUCAAGUCCAGGAGUUUACUCCUGUUAAUUCAACAGCUCGCAGUCAAG,-0.124
15,GGUCACGUCUCAAUCAACUCUAGGUCAGGAGUUUCCUCCUGUAAAUUCAACAGCUCGCAGUCAAG,0.0665
16,GGUCACGUCUCAAUCAACUCUCUCGAGGGGGGGAAAACCCCUUUGCCCUCACAUUCAACAGCUCGCAGUCAAG,0.226
17,GGUCACGUCUCAAUCAACUCAACUCCCAGGGAAACCCCUGGCUUUCUCAACAGCUCGCAGUCAAG,-0.0101
18,GGUCACGUCUCAAUCAACUCUUCUCCCAGGGAAACCCCUGGUUUUUUCAACAGCUCGCAGUCAAG,0.00448
19,GGUCACGUCUCAAUCAACUCUUCUUCCAGGGAAAACCCUGGUUUACUCAACAGCUCGCAGUCAAG,-0.22
20,GGUCACGUCUCAAUCAACUCAUUCCCAGGAGUUUUCUCCUGUUAUCUCAACAGCUCGCAGUCAAG,0.0936
21,GGUCACGUCUCAAUCAACUCUUCCUCCAGGGAAACCCCUGGUAUUUUCAACAGCUCGCAGUCAAG,0.267
22,GGUCACGUCUCAAUCAACUCUAUUCCAGGAGUUUCCUCCUGUUUUUUCAACAGCUCGCAGUCAAG,-0.0612
23,GGUCACGUCUCAAUCAACUCUUAAGAGGGGGGGAAAACCCCUUUACCCUCCACAUCAACAGCUCGCAGUCAAG,-0.112
